Measurements: PMC4336329 (PLoS ONE, 2015)
Among all 310,000 compounds or so, about 14,000 (4.5%) showed an effect of 50% or more. Effects have a minus sign here. Some of the results follow.

What follows are compounds tested against human ether-à-go-go-related gene (hERG) potassium channel (human, UniProt Q12809) (assay: primary screen, population patch clamp on CHO cells stably expressing hERG).
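Also: peak tail current of the secondary pulse compared with the same well before compound.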

human ether-à-go-go-related gene (hERG) potassium channel, sequence (Q12809 whole entry, looked up): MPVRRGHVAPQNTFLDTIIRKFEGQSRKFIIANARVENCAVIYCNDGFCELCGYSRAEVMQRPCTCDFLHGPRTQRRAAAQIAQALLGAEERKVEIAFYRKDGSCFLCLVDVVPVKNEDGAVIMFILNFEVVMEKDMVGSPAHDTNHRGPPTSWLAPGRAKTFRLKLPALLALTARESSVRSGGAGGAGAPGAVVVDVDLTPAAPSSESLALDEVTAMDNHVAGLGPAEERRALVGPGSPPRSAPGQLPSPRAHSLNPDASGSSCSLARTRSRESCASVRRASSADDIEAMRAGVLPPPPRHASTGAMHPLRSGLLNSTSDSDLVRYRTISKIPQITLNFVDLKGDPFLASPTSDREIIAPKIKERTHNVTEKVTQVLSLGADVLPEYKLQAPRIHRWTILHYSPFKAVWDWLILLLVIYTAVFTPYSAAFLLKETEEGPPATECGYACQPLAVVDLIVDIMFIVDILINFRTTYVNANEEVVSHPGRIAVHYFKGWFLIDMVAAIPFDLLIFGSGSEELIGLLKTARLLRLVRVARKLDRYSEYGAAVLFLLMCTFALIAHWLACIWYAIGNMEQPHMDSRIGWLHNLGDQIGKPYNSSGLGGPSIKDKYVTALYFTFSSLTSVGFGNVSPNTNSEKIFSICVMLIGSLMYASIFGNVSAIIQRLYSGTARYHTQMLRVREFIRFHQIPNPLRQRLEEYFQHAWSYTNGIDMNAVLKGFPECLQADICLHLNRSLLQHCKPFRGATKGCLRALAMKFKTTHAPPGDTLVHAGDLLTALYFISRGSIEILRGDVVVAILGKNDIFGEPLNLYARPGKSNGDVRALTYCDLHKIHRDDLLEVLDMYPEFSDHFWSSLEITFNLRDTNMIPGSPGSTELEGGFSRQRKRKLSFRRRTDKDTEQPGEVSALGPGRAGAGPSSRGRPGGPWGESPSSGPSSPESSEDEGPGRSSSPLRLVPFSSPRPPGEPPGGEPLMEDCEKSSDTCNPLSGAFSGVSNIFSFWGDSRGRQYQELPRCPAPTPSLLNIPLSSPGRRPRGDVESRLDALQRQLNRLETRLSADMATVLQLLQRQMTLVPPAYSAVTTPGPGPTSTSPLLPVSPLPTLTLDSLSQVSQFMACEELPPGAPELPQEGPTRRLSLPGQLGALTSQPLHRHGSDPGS

Structure (SMILES) | hERG current change (%, negative = inhibition) at 10uM
Cc1cc(C)cc(SCc2noc(C(=O)NCCN(C)C)c2C(=O)NCCN(C)C)c1 | 6.93%
Cc1cccc(-n2cc(-c3ccccc3)c3c(=O)[nH]cnc32)c1 | -0.42%
O=C(CCC(=O)c1cccs1)NCc1cccc(Cl)c1 | -13.1%
Cc1cc(/C=N/n2cnnc2)c(C)n1-c1ccc2ncccc2c1 | -15.7%
O=C(c1cccs1)N1CCC(c2nc(-c3ccc(S(=O)(=O)N4CCOCC4)cc3)no2)CC1 | -68.8%
CO/N=C/NC(=O)NOCc1ccc(Cl)cc1Cl | -11.5%
CSCCC(NC(=O)COc1ccccc1)C(=O)O (stereo not drawn) | 15.2%
COc1ccc(/C=C2\SC(=S)N(CCCC(=O)NC3CCCC3)C2=O)cc1OC | -12.2%
Cc1cccc(OCCCSc2nc3ccccc3[nH]2)c1 | -15.3%
CCOC(=O)N1CCN(C(=O)COc2ccc(S(=O)(=O)NC3CCCCC3)cc2C)CC1 | -16.9%
Cc1ccc(NC(=O)COC(=O)CCC2CCCC2)c(Br)c1 | 38.5%
Cc1cccc(N2CCN(Cc3cnc(Cl)s3)CC2C)c1 (stereo not drawn) | -6.21%
O=C(N/N=C/c1ccc(OC(=O)c2cccs2)cc1)c1ccccn1 | 7.2%
CC(NC(=O)COC(=O)CCNC(=O)c1ccco1)C12CC3CC(CC(C3)C1)C2 (stereo not drawn) | 0.656%
Cc1ccc(NCc2nnc(SCC(=O)c3ccccc3)o2)c(C)c1 | 9.24%
CC(=NCCc1c(C)[nH]c2ccc(OC(F)(F)F)cc12)C1=C(O)CC(c2ccccc2)CC1=O (stereo not drawn) | 8.92%
COc1ccc(C(=O)c2ccccc2)c(OCC(=O)NC2CC2)c1 | 26.4%
COc1ccc(N2C(=O)NC(=O)/C(=C\c3ccc([N+](=O)[O-])s3)C2=O)cc1 | 13.3%
Cc1ccccc1NC(=O)CSCc1cc(=O)n2ccsc2n1 | 11.6%
C=CCNC(=S)Nc1ccc(C)cc1[N+](=O)[O-] | -7.08%
COc1cccc(C(=O)N(Cc2ccccc2)Cc2cc3cc4c(cc3[nH]c2=O)OCCO4)c1 | -25.3%
COC(=O)[C@@H](NC(=O)NCCC1=CCCCC1)C(C)C | -3.29%

Structure (SMILES) | hERG current change (%, negative = inhibition) at 10uM
CC(C(=O)NC1(C#N)CCCCC1)N(C)CC(=O)Nc1ccc(Cl)c(Cl)c1 (stereo not drawn) | -1.49%
COc1cc(/C=N\NC(=O)CC(=O)NCCc2ccccc2)ccc1O | 15.2%
COC(=O)C1=C(c2ccc3ccccc3c2)C[C@@H]2CC[C@H]1N2C(=O)NC1CC1 | 11.6%
S=c1[nH]cnc2scc(-c3ccc(Cl)cc3)c12 | 18.6%
Cc1ccc(NC(=O)c2ccc(OC(=O)COc3ccc(Cl)c(C)c3)cc2)cc1 | 22.8%
CCOC(=O)C1(Cc2cccc(OC)c2)CCCN(Cc2cc(OC)c(O)c(OC)c2)C1 (stereo not drawn) | -33.7%
CCc1cccc(C)c1NC(=O)CNCc1ccccc1.O=C(O)C(=O)O | 8.8%
Cn1nnnc1SCC(=O)Nc1ccccc1N1CCCCC1 | -15.2%
CCOC(=O)c1c(CS(=O)(=O)c2ccccc2)n(C)c2cc(Br)c(O)cc12 | 5.4%
C=CCOC(=O)c1[nH]c2c(c1C)C(=O)CC(c1cc(OC)c(OC)c(OC)c1)C2 (stereo not drawn) | -46.8%
COc1cc(/C=N/NC(=O)c2cc(-c3cccc(Br)c3)nc3ccccc23)cc(OC)c1O | 10.8%
COc1ccc(NC(=O)c2cccs2)cc1NC(=O)c1ccco1 | -10.8%
O=C(NC(Cc1ccccc1)c1ccc2c(c1)OCCCO2)c1ccccc1F (stereo not drawn) | -11.9%
Cc1cc(F)ccc1NC(=O)C1CCN(C(=O)Nc2ccccc2)CC1 | 7.17%
CCOc1ccc(/C=N/NC(=O)c2c(C)n(C)c3ccc(OC)cc23)cc1 | -5.78%
Clc1cc2nc(-c3cccnc3Cl)[nH]c2cc1Cl | 24%
COC(=O)c1ccc(CSc2ncnc3c2oc2ccccc23)o1 | 0.358%
COc1cccc2c(=O)cc(C)n(CC(=O)Nc3cccc(C)c3)c12 | -59.4%
COC(=O)C1NN=C(C(=O)c2ccc(Br)cc2)C1c1cccc(Br)c1 (stereo not drawn) | 2.42%
Cc1ccc(Oc2ccc(NC(=O)c3ccco3)cc2)cc1 | -17.6%
O=Cc1c(-c2ccccc2)nc2ccccn12 | -1.34%
COc1c(/C=N/NC(=O)[C@H]2C[C@@H]2c2ccccc2)c(CCN(C)C(C)=O)cc2c1OCO2 | -8.15%

Structure (SMILES) | hERG current change (%, negative = inhibition) at 10uM
COc1ccccc1/C=N/NC(=O)CC(=O)Nc1ccc(Cl)c(Cl)c1 | 7.42%
CCC(=O)N1CCc2cc(S(=O)(=O)N3CCN(C(=O)c4ccco4)CC3)ccc21 | -21.8%
CCOC(=O)c1ccc(N=c2sc(C(=O)OC)cc(=O)n2-c2ccc(C(=O)OCC)cc2)cc1 | 7.22%
O=c1[nH]c2cc(Cl)ccc2c(O)c1-c1cccc(Oc2ccccc2)c1 | 3.45%
COc1ccc(NC(=O)CSc2nc3c(c(=O)n(C)c(=O)n3C)n2C)c(OC)c1 | 5.57%
CC(C)(C)c1ccc(OC(=O)Cn2c(C(F)(F)F)nc3ccccc32)cc1 | 0.924%
O=S(=O)([O-])CCC[n+]1c(SCCCS(=O)(=O)O)sc2ccc(Cl)cc21 | 4.11%
Cc1sc2ncnc(N3CCN(S(=O)(=O)c4ccc(Br)cc4)CC3)c2c1C | -47.5%
O=C(c1cccc(F)c1F)N1CCCC1 | 24.7%
O=S(=O)(Nc1ccc(-c2ccc(N3CCOCC3)nn2)cc1)c1cc(Cl)ccc1Cl | -35.3%
CCOc1cccc(/C(O)=C2/C(=O)C(=O)N(Cc3cccnc3)C2c2ccco2)c1 (stereo not drawn) | 0.332%
CCc1ccc(N2CC(C(=O)OCc3nc4ccsc4c(=O)[nH]3)CC2=O)cc1 (stereo not drawn) | -26%
CC1CCN(CCOc2ccccc2-c2ccccc2)CC1.O=C(O)C(=O)O | -58.6%
O=C1OC(Cc2ccccn2)C(O)=C1C1=NCCCN1 (stereo not drawn) | -5.55%
CCN1C(=O)/C(=C/c2nc3ccccc3c(=O)[nH]2)c2ccccc21 | 1.43%
COC(=O)c1ccccc1NC(=O)c1noc2c1CCC2 | 5.22%
CCOC(=O)c1ccc(S(=O)(=O)N2CCN(C(=O)C3CSC4(C)CCC(=O)N34)CC2)cc1 (stereo not drawn) | -23.6%
NC(=S)c1cc2cc(Br)ccc2oc1=O | 9.47%
Cc1ccc(C(=O)NCCS(=O)(=O)N2CCN(c3ccccc3F)CC2)cc1[N+](=O)[O-] | 5.07%
COCCNc1nnc(SCC(=O)NNC(=O)c2ccccc2)s1 | 18.6%
Cc1ccc(-n2ncc3c(SCC(=O)NNC(=O)c4ccco4)ncnc32)cc1 | 23.5%
CCOC(=O)c1ccccc1NC(=O)Cc1ccccc1OC | -18.5%

Structure (SMILES) | hERG current change (%, negative = inhibition) at 10uM
CN(c1ccccc1)S(=O)(=O)c1cccc(NC(=O)C2CC(=O)N(Cc3ccccc3)C2)c1 (stereo not drawn) | -26.2%
CN1CCN(S(=O)(=O)c2ccc(NC(=O)c3csc4ccccc34)cc2)CC1 | -17.5%
Cc1ccc(S(=O)(=O)N2CCCC2CO)cc1 (stereo not drawn) | -1.55%
O=C(NCc1nnc(SCC(=O)N2CCc3ccccc32)o1)c1cccs1 | -12.6%
CC1CCCN(C(=O)c2cc(-c3ccco3)nc3ccccc23)C1 (stereo not drawn) | -15.5%
COc1cccc(CNc2ccc(C(=O)O)cc2)c1OCc1ccccc1 | -13.6%
C/C(CC(=O)NCc1ccc(F)cc1)=N\NC(N)=S | 18.9%
OC(COc1ccc2c(c1)OCO2)CN1CCCCC1 (stereo not drawn) | 18.6%
O=S(=O)(c1ccc2c(c1)C(O)c1ccccc1CC2)C(F)(F)F (stereo not drawn) | -11%
COc1ccc(C(=O)Nc2cccc3ccccc23)cc1 | 1.02%
O=C(CN(Cc1cccs1)C(=O)CNS(=O)(=O)c1ccccc1)NC1CCCC1 | -8.15%
O=c1[nH][nH]cc1C=Nc1ccccc1O | 18.6%
Cc1cc(NC(=O)COc2cccc([N+](=O)[O-])c2)no1 | 14.1%
COc1ccc(Nc2ncc(C(=O)N3CCN(c4ccc(F)cc4)CC3)c3ccccc23)cc1 | -6.15%
CCOC(=O)C(NC(=O)NCc1cccc(C(F)(F)F)c1)(OCC)C(F)(F)F (stereo not drawn) | 19.8%
C1CCN(c2nc3nonc3nc2N2CCCC2)C1 | 4.84%
CCc1cc2cc(C)cc(C)c2nc1Cl | 22.6%
Cc1cc(NS(=O)(=O)c2ccc(NC(=O)c3cc(-c4ccccc4Cl)nc4ccccc34)cc2)no1 | -27.2%
CCCOC(=O)c1ccc(Oc2cn[nH]c2-c2ccc(OCC(=O)NN)cc2O)cc1 | -0.979%
Cc1cc(C)c(C)c(S(=O)(=O)N2CCC(C(=O)NC3=NCCS3)CC2)c1C | -0.713%
CCOc1cc(Br)c(C(C)NC(=O)c2cccnc2)cc1OCC (stereo not drawn) | -5.16%
